Results on 24 molecules are retold here after PubChem BioAssay AID463173 (ICCB-Longwood Screening Facility, Harvard Medical School, 2010).

Out of some 52,000 compounds screened, about 1,700 (3.3%) were called active. Cut-off read from the data, not from the text of the source: active = survival mostly below about 52% (no sharp cut-off); inactive = mostly above about 56%. Some of the results follow.

This assay has as its system Wild type. Kind of assay: growth inhibition of S. aureus wild type versus tarO mutant, primary screen, teichoic acid synthesis inhibitors, RN4220, OD600 (AID 463173). The following applies: S. aureus RN4220 wild type/DeltatarO growth, OD600, 18 h, hits give low values, screened at 18.75 µg/mL (by protocol).
On to `Cc1ccc(OCC(=O)Nc2ccc(OCc3cc(=O)n4ccsc4n3)cc2)cc1C`, for which the survival was inactive: 132%.
For the molecule `CCC(=O)N1CCc2cc(S(=O)(=O)NC(Cc3ccccc3)C(=O)NCc3ccccc3)ccc21` (centres undefined), the survival was inactive: 84%.
Consider `Cc1ccc(NC(=O)Cn2c(=O)n(Cc3nc(-c4ccccc4)no3)c(=O)c3ccccc32)c(C)c1`, for which the survival is inactive: 72%.
For `CCCCNc1nc2c(S(=O)(=O)c3ccc(Br)cc3)nnn2c2ccsc12`, the survival is inactive: 91%.
Regarding `Cc1ccc(Nc2c(-c3ccccn3)nc3ccc(Br)cn23)cc1`, the survival was inactive: 60%.
For the molecule `CCC(=O)N1CCc2cc(Br)cc(S(=O)(=O)N3CCCC(C(=O)Nc4ccc(C)c(F)c4)C3)c21` (centres undefined), the survival was inactive: 99%.
In the case of `Cc1ccc2ccc3cc(C(=O)N4CCN(c5ccccc5F)CC4)nc3c2[nH]1`, the survival is inactive: 78%.
Take `CC(CCc1ccccc1)NC(=O)CSc1n[nH]c(-c2ccccc2)n1` (centres undefined): the survival was inactive: 71%.
`CCCCNC(=O)CCC(=O)NNc1nc2ccccc2c2nc(C)nn12`: the survival is inactive: 83%.
With `COc1ccccc1NC(=O)c1c(-c2ccc(C)cc2)nnc2ccccc12`, the survival was inactive: 119%.
Consider `Cc1ccc(C(=O)N(Cc2ccc(N(C)C)cc2)CC2CCCO2)cc1` (centres undefined), for which the survival is inactive: 83%.
In the case of `Cc1nn(C(C)C(=O)NCc2ccc(OC(C)C)cc2)c(=O)c2c1sc1ccccc12` (centres undefined), the survival was inactive: 105%.
With `COc1ccc(N2CCN(C(=O)Nc3cn(CC(C)C)c(=O)c4ccccc34)CC2)cc1` the figure was inactive: 92%; with `O=C(NCc1cccs1)c1ccc2c(c1)sc1nc(-c3ccc(F)cc3)cn12`, inactive: 90%.
In the case of `O=C(Nc1cc(Cl)ccc1Cl)c1ccc2c(c1)N(Cc1cccc(Cl)c1)C(=O)c1ccccc1S2=O` (centres undefined), the survival was inactive: 128%.
In the case of `Cc1c(Cl)cccc1NC(=O)c1cc(-c2ccc3c(c2)OCO3)on1`, the survival was inactive: 85%.
With `COc1c(Cl)cc(C(=O)Nc2cc(-c3nc4ccccc4[nH]3)ccc2C)cc1Cl`, the survival is inactive: 84%.
Consider `Cc1nn(-c2ccccc2)c(OC(=O)c2ccccc2)c1S(=O)(=O)c1ccccc1`, for which the survival was inactive: 55%.
For `COc1ccc(-c2csc(C(C#N)=C3CCCC3)n2)cc1`, the survival is inactive: 108%.
With `Cc1ccc2oc(C(=O)Nc3c(C(=O)Nc4cccc(Cl)c4)oc4ccccc34)cc(=O)c2c1` the figure was inactive: 91%.
As to `Cc1ccccc1Cn1ccn(-c2ccc(F)c(F)c2)c(=O)c1=O`, the survival is inactive: 86%.
Turning to `O=C(Nc1ccccc1C(F)(F)F)N1CCOc2ccc(Cl)cc21`, the survival is inactive: 84%.
Consider `Cc1ccc(N2C(=O)CS(=O)(=O)C23C(=O)Nc2ccccc23)cc1C` (centres undefined), for which the survival is inactive: 71%.
For `CCOC(=O)CSc1nc2ccccc2c(=O)n1-c1ccc(C(=O)NCCOC)cc1`, the survival is inactive: 80%.
